These are yes or no findings as the source states them, for the method shown. Some binding calls cover weakened binding; strength is not graded here. For some assays here: Where a sequence is shown, tags or fusion partners need not be part of it. Each block holds one binder with its values, some of them ahead of it.
Tests used:
[1] = biological target: T1, FTS–HOOK3(629–718)–FHIP1B complex (human) (UniProt Q86VS8+Q9H8T0+Q8N612); test: SEC; typically 5 µM FHF construct and 10 µM KIF1C stalk construct in GF150 (25 mM HEPES pH 7.2, 150 mM KCl, 1 mM MgCl2, 1 mM DTT); Superose 6 Increase 3.2/300; both purified
T1 sequence 1: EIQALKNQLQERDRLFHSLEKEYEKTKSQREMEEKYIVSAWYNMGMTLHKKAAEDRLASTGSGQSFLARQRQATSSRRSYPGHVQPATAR
T1 sequence 2: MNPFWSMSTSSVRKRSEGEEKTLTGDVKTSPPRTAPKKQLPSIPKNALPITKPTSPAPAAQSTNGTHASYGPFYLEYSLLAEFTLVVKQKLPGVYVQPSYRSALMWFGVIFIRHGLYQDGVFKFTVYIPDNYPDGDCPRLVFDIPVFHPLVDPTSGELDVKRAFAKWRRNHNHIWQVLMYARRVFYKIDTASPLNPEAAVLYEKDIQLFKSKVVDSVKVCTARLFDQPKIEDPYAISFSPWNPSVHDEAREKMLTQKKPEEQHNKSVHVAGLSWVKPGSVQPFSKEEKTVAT
T1 sequence 3: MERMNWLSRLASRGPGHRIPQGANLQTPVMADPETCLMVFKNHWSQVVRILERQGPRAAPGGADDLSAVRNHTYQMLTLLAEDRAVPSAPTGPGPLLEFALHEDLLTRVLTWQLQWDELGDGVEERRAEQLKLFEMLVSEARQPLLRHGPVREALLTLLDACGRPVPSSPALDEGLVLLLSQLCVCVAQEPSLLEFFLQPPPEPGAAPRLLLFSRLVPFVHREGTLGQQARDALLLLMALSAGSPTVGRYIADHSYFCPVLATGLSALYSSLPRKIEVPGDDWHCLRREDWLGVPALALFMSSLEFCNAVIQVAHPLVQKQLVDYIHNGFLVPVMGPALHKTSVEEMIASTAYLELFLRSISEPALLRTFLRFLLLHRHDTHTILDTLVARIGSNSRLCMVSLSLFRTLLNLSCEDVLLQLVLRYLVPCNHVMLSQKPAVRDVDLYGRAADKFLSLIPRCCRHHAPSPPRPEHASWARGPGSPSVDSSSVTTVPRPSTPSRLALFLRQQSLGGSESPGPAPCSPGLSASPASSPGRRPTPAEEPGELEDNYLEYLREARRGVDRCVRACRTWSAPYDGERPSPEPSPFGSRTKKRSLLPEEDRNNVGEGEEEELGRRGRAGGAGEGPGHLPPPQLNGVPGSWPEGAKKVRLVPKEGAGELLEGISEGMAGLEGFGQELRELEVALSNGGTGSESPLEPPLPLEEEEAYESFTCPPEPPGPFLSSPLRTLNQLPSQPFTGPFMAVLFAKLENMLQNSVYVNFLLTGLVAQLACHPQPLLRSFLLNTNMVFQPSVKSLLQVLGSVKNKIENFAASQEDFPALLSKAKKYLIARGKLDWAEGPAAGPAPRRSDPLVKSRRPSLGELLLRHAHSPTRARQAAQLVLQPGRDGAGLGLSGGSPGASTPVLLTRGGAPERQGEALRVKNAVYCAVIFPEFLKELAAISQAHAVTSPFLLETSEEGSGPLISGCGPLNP

[2] = biological target: full-length FTS–HOOK3–FHIP1B complex (human) (UniProt Q86VS8+Q9H8T0+Q8N612); test: cross-linking; cross-linking mass spectrometry; 10 mM EDC or 5 mM DSSO, room temperature, 60 min; full-length FHF or FH^571-718F with KIF1C stalk 674-922; both purified
[3] = biological target: T2, FTS–HOOK3(571–718)–FHIP1B complex (human) (UniProt Q86VS8+Q9H8T0+Q8N612); test: as above
T2 sequence 1: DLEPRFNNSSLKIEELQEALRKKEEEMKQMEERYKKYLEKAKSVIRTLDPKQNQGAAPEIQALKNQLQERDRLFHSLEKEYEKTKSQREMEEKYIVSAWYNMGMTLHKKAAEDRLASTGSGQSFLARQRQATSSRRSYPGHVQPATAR
T2 sequence 2: T1 sequence 2
T2 sequence 3: T1 sequence 3

[4] = biological target: FTS–HOOK3(451–718)–FHIP1B complex (human) (UniProt Q86VS8+Q9H8T0+Q8N612); test: cryo-EM structure; FH^451–718F with GST-KIF1C stalk 674–922; 4.8 Å, low resolution at the KIF1C stalk density; no atomic model; both purified
[5] = biological target: T3, full-length HOOK2 (human), Q96ED9; test: co-expression and co-purification; strep-HOOK2 or strep-HOOK3 (full length or C-terminal fragment) co-expressed with FTS and FHIP1B or FHIP2A in Sf9; Strep-Tactin Sepharose, PreScission cleavage, Superose 6; SDS-PAGE; complexes of the fragments also seen in cryo-EM 2D class averages; details: remark: other sources report otherwise
T3 chain: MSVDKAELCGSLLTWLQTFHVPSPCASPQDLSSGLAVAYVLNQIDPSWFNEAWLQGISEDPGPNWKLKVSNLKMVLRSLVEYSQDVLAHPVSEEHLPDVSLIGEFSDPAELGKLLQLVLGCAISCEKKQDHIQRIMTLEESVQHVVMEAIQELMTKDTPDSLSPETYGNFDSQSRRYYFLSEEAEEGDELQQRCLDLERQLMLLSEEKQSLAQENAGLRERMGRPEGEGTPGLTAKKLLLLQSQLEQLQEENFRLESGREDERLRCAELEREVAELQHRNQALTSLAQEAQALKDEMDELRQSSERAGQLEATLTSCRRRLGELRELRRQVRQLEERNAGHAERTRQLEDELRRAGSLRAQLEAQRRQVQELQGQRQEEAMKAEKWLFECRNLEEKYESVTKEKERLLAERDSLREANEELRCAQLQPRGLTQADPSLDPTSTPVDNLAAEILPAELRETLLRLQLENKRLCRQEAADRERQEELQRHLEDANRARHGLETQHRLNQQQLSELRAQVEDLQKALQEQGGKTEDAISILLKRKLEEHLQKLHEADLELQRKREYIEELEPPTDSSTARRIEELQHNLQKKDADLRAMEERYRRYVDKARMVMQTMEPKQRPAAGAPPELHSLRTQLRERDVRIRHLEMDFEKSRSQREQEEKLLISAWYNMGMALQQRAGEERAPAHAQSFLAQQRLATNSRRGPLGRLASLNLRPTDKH

- binding [1]: no binding
B1: GST–KIF1C stalk SGD construct (domain or fragment, UniProt O43896 720-841)
chain: RAPRRVYQIPQRRRLQGKDPRWATMADLKMQAVKEICYEVALADFRHGRAEIEALAALKMRELCRTYGKPDGPGDAWRAVARDVWDTVGEEEGGGAGSGGGSEEGARGAEVEDLRAHIDKLT

- binding [2]: binds
- binding [3]: binds
- binding [4]: binds
B2: GST-KIF1C stalk 674-922 (domain or fragment, UniProt O43896 674-922)
chain: SDSGDDSDKRSCEESWRLISSLREQLPPTTVQTIVKRCGLPSSGKRRAPRRVYQIPQRRRLQGKDPRWATMADLKMQAVKEICYEVALADFRHGRAEIEALAALKMRELCRTYGKPDGPGDAWRAVARDVWDTVGEEEGGGAGSGGGSEEGARGAEVEDLRAHIDKLTGILQEVKLQNSSKDRELQALRDRMLRMERVIPLAQDHEDENEEGGEVPWAPPEGSEAAEEAAPSDRMPSARPPSPPLSSWE

- binding [5]: binds
B3: FHIP1B, Q8N612 1-972 (protein)
chain: T1 sequence 3
